This is one part of the list.

These results are taken from the supplement of paper PMC11417369.

The assay deals with PF3D7_0420300 AP2 domain 1 (GST-tagged). Briefly: gcPBM binding intensity (ln(normalized median fluorescence intensity)); higher = stronger DNA binding. Summed up: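 Binding intensity is defined as the maximum Masliner-normalised natural-log median intensity across replicate spots for either probe orientation. It was measured on an Agilent 4 × 180k array of primer-extended double-stranded 36-bp intergenic genomic probes and negative controls, to which GST-tagged P. falciparum DNA-binding domains made in E. coli were applied for 1 h in 1× PBS with 1% milk, 0.2 mg/ml BSA, 0.5% salmon testes DNA and 0.03% Triton X-100. Detection was by Alexa488 anti-GST antibody and scanning at 488 nm.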
For “TTATTTTATAATAAAAGTACACAAAAAAAAAAAAAA [XGTACX_site7668]”, the “gcPBM binding intensity (ln)” value is 8.94.

As for “GTAGAGCATAATAAAACACACACATACATACATATA [CACACA_site8217]”, the “gcPBM binding intensity (ln)” value came out at 9.84.

“ATGGACATCTATTGTTGTACACATTTTCCCATAACA [XGTACX_site5429]”: the “gcPBM binding intensity (ln)” value was found to be 9.22.

In the case of “TTTCAAAAATGAGTTACACACACACGGATATAAATA [CACACA_site7116]”, the “gcPBM binding intensity (ln)” value was 9.91.

For “GAATATAAAATATATATATATATATATATATATATA [GTGCAC_negctrl_site425]”, the “gcPBM binding intensity (ln)” value turned out to be 8.79.

With “AATTTTAAGAGCTATACATGCACTTCATAAAAAGTG [TGCATGCA_site180]”, the “gcPBM binding intensity (ln)” value is 8.87.

In the case of “ATAATAAAAAAAAATGCACACATATATATATATATA [CACACA_site8766]”, the “gcPBM binding intensity (ln)” value came to 9.21.

Take “TAACAATTAATAAAAGGTACACTTGAATATGCACCA [XGTACX_site2717]”: the “gcPBM binding intensity (ln)” value was 9.16.

Regarding “AATATATATATATATACACACACACCGATATATATA [CACACA_site8158]”, the “gcPBM binding intensity (ln)” value stood at 10.1.

In the case of “TTAATATTTAGACATGCATGCTAATTACTATATATA [TGCATGCA_site27]”, the “gcPBM binding intensity (ln)” value is 9.09.

As for “ATTAATATTCTATATGCATGTGAACCATGGTATATA [TGCATGCA_site430]”, the “gcPBM binding intensity (ln)” value is 9.12.

Consider “ATATATATATATATATGTACTTATTTATCGTATTAT [XGTACX_site3520]”, for which the “gcPBM binding intensity (ln)” value was 9.36.

With “TCATATCTTTTGAGCACACATATATATATATAAAGG [CACACA_site3338]”, the “gcPBM binding intensity (ln)” value worked out at 9.12.

For “ATAAAATATTAATTTTAAATTAATCAATATATATAA [GTGCAC_negctrl_site474]”, the “gcPBM binding intensity (ln)” value stood at 8.95.

With “AGGCTCAAATCTAGGTGTACCATTATCGTTGTATCT [XGTACX_site4730]”, the “gcPBM binding intensity (ln)” value came out at 9.41.

As for “ATTTTTTCTTATAATGCATGTAGAAAACCGTACAGC [TGCATGCA_site57]”, the “gcPBM binding intensity (ln)” value worked out at 8.91.

Consider “TATGTGTTTATTTGGTGTACATACTAATAAATATAC [XGTACX_site1682]”, for which the “gcPBM binding intensity (ln)” value turned out to be 9.31.

On to “CCTAAATTATATTATGCACACTTAAAAATATATTTA [CACACA_site5861]”, for which the “gcPBM binding intensity (ln)” value came out at 9.14.

As for “ATATAATAAAATGACACACGCATATATATATATATA [CACACA_site2789]”, the “gcPBM binding intensity (ln)” value worked out at 9.33.

On to “TTATATTTATTTATTTGTACATATTTTTTTTTATAT [XGTACX_site1669]”, for which the “gcPBM binding intensity (ln)” value came to 9.21.

“TTTCTTTTTAAATATATACACACCGTGGGTACATAT [CACACA_site9102]”: the “gcPBM binding intensity (ln)” value was 9.22.

In the case of “ATATATATATATAACTGTACTTATATATACATTTTA [XGTACX_site8605]”, the “gcPBM binding intensity (ln)” value worked out at 9.25.

“ATATATATATATATATGTACATATATATATAATTTT [XGTACX_site4146]”: the “gcPBM binding intensity (ln)” value was 9.18.

Regarding “TAAATAAATAAAAAAACACACATATATATATATATA [CACACA_site4029]”, the “gcPBM binding intensity (ln)” value was 9.51.

Regarding “TTTTATCACATTATTGCACACACATAAAGAAAAAAA [CACACA_site8922]”, the “gcPBM binding intensity (ln)” value amounted to 9.52.

Take “ACGGGTCAATATATGCGTACTTATTTAAATAATTAA [XGTACX_site1518]”: the “gcPBM binding intensity (ln)” value was found to be 9.21.

In the case of “ATTATGTATATAAATTAACACACATATGTGGTTAAT [CACACA_site9028]”, the “gcPBM binding intensity (ln)” value is 9.31.

With “ATAAATGGAAACAAAAGTACTAAAAAAAAAAAATAA [XGTACX_site1510]”, the “gcPBM binding intensity (ln)” value came to 9.32.

For the sequence “AATAATATAGATTGTACACACAAAATGGGAAAAAAA [CACACA_site1886]”, the “gcPBM binding intensity (ln)” value worked out at 9.86.

Regarding “TATATATGTATGTATTGTACAATTAAAAATATGTAT [XGTACX_site3990]”, the “gcPBM binding intensity (ln)” value was found to be 9.28.

Turning to “AAAAAAAAAAAAGATACACACAAAAATGAATATATA [CACACA_site2099]”, the “gcPBM binding intensity (ln)” value worked out at 9.8.

Take “ATATGAAATAATAATAGTACATAAAATAATTTTACT [XGTACX_site6964]”: the “gcPBM binding intensity (ln)” value turned out to be 9.31.

On to “ATAGAAATATATATATGTACATATAGATAAATCTAT [XGTACX_site7833]”, for which the “gcPBM binding intensity (ln)” value was found to be 9.28.

Regarding “ATAAATACAGATAACACACACATATATATATATATA [CACACA_site5431]”, the “gcPBM binding intensity (ln)” value is 9.72.

With “AAAAATAACGTAAATTGTACATGTAAAATTTTCTAT [XGTACX_site7158]”, the “gcPBM binding intensity (ln)” value was 9.25.

Consider “TTATTTATTTATAATAGTACAATTTAATGATCTTCT [XGTACX_site4831]”, for which the “gcPBM binding intensity (ln)” value stood at 9.02.

In the case of “TGTTTTATACTAAATGAACACACACCCATATATATA [CACACA_site7912]”, the “gcPBM binding intensity (ln)” value was 9.64.

Turning to “CAATATATTTGATTTACACACTTACAATGTATATAA [CACACA_site2994]”, the “gcPBM binding intensity (ln)” value was 9.33.

Turning to “AATAATATATATATATATATAATAAAATATAAATAG [CACACA_negctrl_site1515]”, the “gcPBM binding intensity (ln)” value turned out to be 9.34.

On to “CCAACATGCCCACGCACACACAAAAAAAGCATGCAT [CACACA_site4217]”, for which the “gcPBM binding intensity (ln)” value was determined as 9.58.

As to “TAAAAAATGAAAAAGCGTACATGTTTTCTTATATTA [XGTACX_site1722]”, the “gcPBM binding intensity (ln)” value was 9.08.

Take “TTTTCTAAAATGAATTGTACTTGATTATTTAAAAAA [XGTACX_site6097]”: the “gcPBM binding intensity (ln)” value is 8.6.

Regarding “ATACTAAAAAGTATCTGTACTTATTTTAAAAATAAA [XGTACX_site4116]”, the “gcPBM binding intensity (ln)” value was determined as 8.95.

In the case of “TATTTACTTATATGCACACATAAATGTGAATTATGG [CACACA_site3777]”, the “gcPBM binding intensity (ln)” value was determined as 9.27.

Consider “TAAATAATTAAAATATGTACTGAAATGTAATTATTT [XGTACX_site5894]”, for which the “gcPBM binding intensity (ln)” value came to 9.2.
